# Experimental data: PubChem BioAssay (NCI)
#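 Growth conditions: 96-well plates. Treatment: test compound, 48 hours, 5 concentrations. Analysis: linear interpolation between bracketing concentrations; unreached endpoints set to highest concentration. GI50 = concentration required for 50% inhibition of growth. TGI: concentration producing complete growth inhibition.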
# Test system: NCI-H322M lung
# Experiment: DTP human tumour cell line panel, 48 h
Structure (SMILES),TGI [µM],GI50 [µM]
O=C1CCC(=O)N1Cc1ccccc1N=[N+]([O-])c1ccccc1CN1C(=O)CCC1=O,> 100,
N#CN=C(N)NC(=O)/C=C/C=C/c1ccc(Cl)cc1,> 100,
c1ccc2[nH]c(-c3ccc(NN=Nc4ccncc4)cc3)nc2c1,> 100,> 100
O=C(CC1(O)C(=O)Nc2c(Cl)ccc(Cl)c21)c1ccc2ccccc2c1 (stereo unspecified),57,
O=C(Nc1cccc(Cl)c1)c1ccc(NC2=C(Cl)C(=O)N(Cc3ccccc3)C2=O)cc1,22.9,7.96
Oc1cc(-c2ccccc2)cn2c1nc1ccccc12,> 100,
COc1cccc(NC(=O)/C(CC(=O)CC(c2ccccc2)c2c(O)c3ccccc3oc2=O)=N\NC(C)(C)C)c1OC (stereo unspecified),> 100,
C/C(=N/Nc1nc2ccccc2n1C)c1ccccn1,29.9,0.0596
COC(=O)c1ccccc1CC1Cc2ccc3c(c2C1)CCC3 (stereo unspecified),> 100,
OC1(c2ccccc2)CC2CCC(C1)N2CCCC1(c2ccc(F)cc2)OCCO1 (stereo unspecified),> 100,
CC1=C2C[C@H]3[C@@H](CC[C@@H]4CC(NS(C)(=O)=O)CC[C@@]43C)[C@@H]2CC[C@@]2(C1)O[C@@H]1C[C@H](C)CN[C@H]1[C@H]2C (stereo partly specified),29.2,15
CC(C)(O)CS(=O)(=O)Nc1ccc2c(c1)CCN(C(=O)COc1cccnc1)C2,> 100,> 100
O=C(O)CN1CCN2CCOCCOCCN(CC1)CCN(CC(=O)O)CC2,> 100,
CSc1nc(Cl)c(Br)c(Sc2nc(N)nc3nc[nH]c23)n1,22,
COc1ccc(-n2nnnc2-c2c[nH]c3c(F)cc(F)cc23)cc1,> 100,> 100
O=c1nc2n(-c3ccc(Cl)cc3)c3ccc([N+](=O)[O-])cc3cc-2c(=O)[nH]1,59.8,33
Clc1ccc2c(c1)C1C(CO2)C(c2ccccc2)=NN1c1ccccc1 (stereo unspecified),> 100,
Cc1ccccc1N=Nc1ccc(NC(=O)c2ccnn2C)c(C)c1,> 100,> 100
N#C/C(=C/c1ccc[nH]1)P(=O)(O)O,> 100,
N[C@@H]1CCCC[C@H]1N.O=C([O-])C(=O)[O-].[Pt+4],> 100,35.3
Cc1c(C)c2c(c(N)c1C#N)C(=O)N(Nc1ccccc1)C2=O,6.61,
C=CC(c1ccccc1)[C@@]1(OC(C)=O)C(=O)C(=O)OC1C1COC(C)(C)O1 (stereo partly specified),31.6,
O=C(CN1CCN(CCCOc2c(-c3ccccc3)oc3ccccc3c2=O)CC1)Nc1ccc(Cl)cc1C(=O)c1ccccc1Cl,> 100,26.9
CCC/C(=N/N=C(N)N)c1ccc(NC(=O)c2cc3cc(OC)ccc3[nH]2)cc1,29.1,13.6
Cc1ccc(-n2c3c(c4c(CN(C)C)c(O)ccc42)CCc2ccccc2C3=O)cc1,48.1,22.2

Structure (SMILES),TGI [µM],GI50 [µM]
O=C(Nc1cc(Cl)cc(Cl)c1)c1ccc(NC2=C(Cl)C(=O)N(Cc3ccc(Cl)cc3Cl)C2=O)cc1,28,5.54
Nc1nc(N)c(C2=CCNCC2)c(=O)[nH]1,> 100,
Nc1nc(N)c2c(n1)NC(=O)c1c(c3ccccc3n1Cc1ccc(Cl)cc1)C2,56.6,
Cn1c(/C=C(\C#N)c2ccccc2)nc2c(N3CCOCC3)nc(Cl)nc21,3.37,1.63
N=C(c1ccc2ccccc2c1)c1ccccc1Cc1ccccc1,> 100,
COC(=O)N1CCc2c(nc(N(C)CCO)[nH]c2=O)C1,> 100,
Cc1ccc(C)n1-n1c(Cc2ccccc2)n[nH]c1=O,> 100,
O/C(=C\c1nc2ccccc2nc1/C=C(\O)c1ccc(Cl)cc1)c1ccccc1,> 100,
O=S1CCS(=O)CCS(=O)CC1 (stereo unspecified),> 100,
CC(C)(C)N1C(C(=O)c2ccccc2)C1c1ccccc1 (stereo unspecified),> 100,
Nc1ccc2nc(Nc3ccc(F)cc3)cnc2c1,> 100,
CC(=O)NC(C)(C)C1CC=C(C)CC1 (stereo unspecified),> 100,
c1ccc2c(c1)nc1n2CCCn2ccnc2-1,> 100,
Clc1cc(Cc2cc(Cl)c(Cl)c3c2OCOC3)c2c(c1Cl)COCO2,> 100,
COC(=O)C(=O)OC1(C(C)=O)CC2(c3ccccc3)OC1(c1ccccc1)c1ccccc12 (stereo unspecified),33.2,
Oc1cc(O)c2c(-c3c(O)c(-c4ccc(O)c(O)c4)[o+]c4cc(O)cc(O)c34)c(O)c(-c3ccc(O)c(O)c3)[o+]c2c1,> 100,
CC1(C)O[C@@H]2[C@@H](COC(=O)c3ccccc3)C[C@@H](C#N)[C@@H]2O1,> 100,
COc1ccc(/C=C/C(=O)c2ccc(SC)cc2)cc1OC,27,13.1
COc1cc(/C=C(\C#N)C(=O)c2ccccc2)ccc1O,> 100,
CN(C(=O)C12C3C4C1C1C4(C(=O)C45C6C7C4C4C5C6C74C)C3C12C)C(C)(C)C (stereo unspecified),> 100,
NC(=S)N/N=C(\Cc1nc2ccc(Cl)cc2[nH]c1=O)C(=O)Nc1ccc(Cl)cc1,> 100,
O=C1C(Cl)=C(Nc2cccc(Cl)c2)C(=O)N1Cc1ccccc1Cl,38.6,16.5
N/C(=C\c1ccc(OCc2ccccc2)c(OCc2ccccc2)c1[N+](=O)[O-])C(=O)O,> 100,
CCC/C(=N/NC(=O)C(N)=O)C(CC)C(=O)CCC(=O)N(Cc1ccccc1)Cc1ccccc1 (stereo unspecified),> 100,
C#CCC(Cc1cnc2nc(N)nc(N)c2n1)c1ccc(C(=O)N[C@@H](CCC(=O)O)C(=O)O)cc1 (stereo partly specified),> 100,> 37.2

Structure (SMILES),TGI [µM],GI50 [µM]
COc1cc(C)c2c(=O)c3ccccc3n(C)c2c1,> 100,
CC(C)c1cc(CN(C)C)c(O)c(C(C)(C)C)c1,> 100,
Nc1c(Br)cc(Br)c2c1[nH]c(=O)c1ccccc12,> 93.6,12.3
c1cc(Sc2nc(Sc3ccncc3)nc(Sc3ccncc3)n2)ccn1,> 100,
COC1CC2CCC(C)C(O)(O2)C(=O)C(=O)N2CCCCC2C(=O)OC(C(C)CC2CCC(O)C(OC)C2)CC(=O)C(C)C=C(C)C(O)C(OC)C(=O)C(C)CC(C)/C=C/C=C/C=C1C (stereo unspecified),13.7,< 0.005
COc1cc(C2c3cc(O)c(OC)cc3C3OCC2C3CO)ccc1O (stereo unspecified),> 100,
CCOC(=O)C(/C=N\C(=S)Nc1ccc(Cl)c(Cl)c1)=C(/O)c1ccccc1,> 100,
COc1ccc(C(=O)Cc2c(C(=O)c3ccccc3)c3ccccc3n2C(=O)c2ccccc2)cc1,> 100,
CC(=O)[CH-]C(=O)c1ccccc1.CC(=O)[CH-]C(=O)c1ccccc1.[Eu+3].[OH-].[OH3+],> 100,> 100
O=C1NC(O)C(c2c[nH]c3ccccc23)=C1c1c[nH]c2ccccc12 (stereo unspecified),> 25,> 25
COC(=O)c1c2c(c(C)[n+]([O-])c1C)C(=O)C=C(NCc1ccc(F)c(Cl)c1)C2=O,1.6,0.429
Oc1cc(Br)cc2cccnc12,> 100,
COc1c(C)c2c(c(=O)c3c(C)cccc3n2C)c2c1c(=O)c1c(C)cccc1n2C,> 10,
O=C(c1ccco1)c1nc2cc(Cl)ccc2[n+]([O-])c1C(F)(F)F,> 100,79.5
N#Cc1nc2c(S(=O)(=O)c3ccccc3)c(N)n(Cc3cccnc3)c2nc1C#N,> 100,> 100
Cc1sc2nc(-c3ccc(Cl)c([N+](=O)[O-])c3)c(/C=N/N=C(N)N)n2c1C,2.96,
CC(=O)Nc1ccc(NC(=O)c2c(Cl)c(Cl)c(Cl)c(Cl)c2-c2nc3ccccc3[nH]2)cc1,> 100,
Ic1ccccc1-c1ccccc1,> 100,> 100
Cc1cc2nc3c4cc(N)ccc4n(CCN(C)C)c3nc2cc1C,6.29,0.65
N#CC(C(=O)CCC(=O)C(C#N)c1ccccc1)c1ccccc1 (stereo unspecified),> 100,
COc1cc2cc(Oc3ccc(NC(=O)Nc4cccc(C(F)(F)F)c4)cc3)c(C)nc2cc1OC,16.6,2.84
NC(=O)C(N)=O,> 100,
O=C1NC(=O)C2C(=O)NC(=O)C1C2(c1ccccc1)c1cc[nH]c1 (stereo unspecified),> 100,
CCCCCCCCCCCCCC(=O)CC(=O)c1c(O)cccc1O,> 100,
COc1ccc(/C=C\c2cc(OC)c(OC)c(OC)c2)cc1OC(=O)c1cccc(Cn2cc(CCOC(=O)[C@H](N)Cc3cn(C)c4ccccc34)nn2)c1,> 100,0.0394

Structure (SMILES),TGI [µM],GI50 [µM]
Cn1c(=O)nc2n(-c3cccc(Br)c3)c3ccccc3nc-2c1=O,17,
CC(C)CC1C(=O)NCCC(NC(=O)C(N)Cc2ccc(O)cc2)C(=O)NC(Cc2ccccc2)C(=O)NC(Cc2ccccc2)NC1=O (stereo unspecified),> 100,
CCOC(=O)N1CCc2cc(OC)c(OC)c3c2c1cc1cc(OC)c(OC)cc13,> 100,
CCC1(c2c(F)c(F)c(N)c(F)c2F)CCC(=O)NC1=O (stereo unspecified),> 100,
CCOP(=O)(CCCC(O)CNc1cc(Cl)nc(N)n1)OCC (stereo unspecified),> 100,
CC1(c2cccc3ccccc23)OC(=O)c2ccccc21 (stereo unspecified),> 100,
O=C1c2ccccc2C(=O)[C@@]23O[C@@]12C1(Oc2cccc4cccc(c24)O1)[C@@H]1O[C@@H]1[C@@H]3O,35.1,
Oc1ccccc1C=NCc1ccco1,> 100,
O=c1ccc2nc(-c3ccccc3)nn(-c3ccccn3)c-2c1,> 100,> 100
O=C(CSc1nc2ccccc2s1)c1sc2sc3ccccc3[n+]2c1[O-],> 100,
CN(CCCCN1CCCC1)CCCN(C)C(=O)Cc1ccc(Cl)c(Cl)c1,33,
Oc1ccccc1/C=N/Nc1nc(N/N=C/c2ccccc2O)nc(N/N=C/c2ccccc2O)n1,> 100,
O=C(CNc1ccc2c(c1)C(=O)c1ccccc1C2=O)Nc1ccc2c(c1)C(=O)c1ccccc1C2=O,3.02,1.63
FC(F)(Sc1ccccn1)c1nc2ccccc2o1,> 100,
Cc1nc2sc3ccccc3n2c(=O)c1N=Nc1ccc(Br)cc1,> 100,
COc1cc(C)c(/C=C/C(=O)N2C(=O)OC[C@@H]2c2ccccc2)c(C)c1,> 100,
CN(C)c1ccc([O][Bi]([Cl])[Cl])cc1,> 100,> 100
CC(=O)[CH-]C(=O)c1ccccc1.CC(=O)[CH-]C(=O)c1ccccc1.CC1(C)C2CCC1(C)C([O-])C2.CC1(C)C2CCC1(C)C([O-])C2.[Ti+4],> 100,36.6
Cc1ccccc1C(=O)c1ccccc1O,> 100,
O=C1CCCCCCCC/C=C\CC(c2ccco2)O1 (stereo unspecified),> 100,> 100
Cc1c(-c2c(-c3ccc(F)o3)sc3ncnc(O[C@H](Cc4ccccc4OCc4ccnn4CC(F)(F)F)C(=O)O)c23)ccc(OCCN2CCN(C)CC2)c1Cl,14.5,4.94
CCN=C(NNc1ccc([N+](=O)[O-])cc1)P(=O)(OC(C)C)OC(C)C,> 100,
